# Measurements from the supplement of paper PMC11417369.
# ± gives the standard deviation of the averaged measurements. The list shows a part of the results.
# Test system: PfAP2-EXP AP2 domain (GST-tagged)
# Assay: gcPBM binding intensity (ln(normalized median fluorescence intensity)); higher = stronger DNA binding
# Outline: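 Probes on an Agilent 4 × 180k array were primer-extended, double-stranded and 36 bp long, taken from intergenic genomic regions, with negative controls added. GST-tagged P. falciparum DNA-binding domains from E. coli, about 25 μg on average, were applied to the array for 1 h in 1× PBS containing 1% milk, 0.2 mg/ml BSA, 0.5% salmon testes DNA and 0.03% Triton X-100. Binding intensity, obtained after Alexa488 anti-GST antibody detection and a 488 nm scan, is the highest Masliner-normalised natural-log median intensity across replicate spots of either probe orientation.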
row,Sequence,gcPBM binding intensity (ln)
1,TATATTTAATTATTATGTACTTATAATTTTTGAAAG [XGTACX_site8548],8.51 ± 0.38
2,AAATATATATACACATATATATATATATATATATAT [CACACA_negctrl_site1742],9.95 ± 0.52
3,CTTTCCTATTTGACACGTACGAAATTTTACATAAAA [XGTACX_site6689],8.89 ± 0.38
4,AAAATAAAAAATATAACACACAATAAATATTTATAT [CACACA_site6986],8.68 ± 0.28
5,TATGAAATATCGTGCACACACGAATAATATAAGAAT [CACACA_site4842],8.74 ± 0.14
6,TATGGTATATACAACACACACACATATGTATAAATA [CACACA_site6562],8.88 ± 0.5
7,ATTTATACATGCTAATGTACTTATTTCACCTATATC [XGTACX_site3120],8.69 ± 0.38
8,TATATATATAATATTACACACATATATTTATATTTT [CACACA_site3460],8.87 ± 0.099
9,CAAGTATTAATTATGTGTACATATATATATATATAT [XGTACX_site5311],10.1 ± 0.53
10,TATGTATTTATCCACTTACATTTTTACTTTTCCATT [CACACA_negctrl_site1141],8.88 ± 0.36
11,AAAAAAAAAAAATAGACACACATATTATATATATAT [CACACA_site1419],9.75 ± 0.16
12,TATTATTCTATACATTGTACATATTTTATAGTATGT [XGTACX_site73],8.6 ± 0.39
13,TTTAAAACCTTACATACACACAAATATGTAAATATA [CACACA_site6464],8.27 ± 0.38
14,AAAAAAAAAAAAAAAACACACATATAGGTATAAATA [CACACA_site7528],8.54 ± 0.12
15,CACGCATATATACATACATGCATATATACATCCATG [TGCATGCA_site667],8.76 ± 0.24
16,TTCATATAACCTTATAGTACATAATTAAAAATATAA [XGTACX_site6328],8.48 ± 0.59
17,AACAGCATTATTTCTTATTTTTTTTTTGATATATTT [GTGCAC_negctrl_site114],8.43 ± 0.49
18,ATATCTATAATAAATACACACATTTATATAGATAAA [CACACA_site7518],8.19 ± 0.34
19,GTTATATTATTCATACGTACCTATATTTCTATTAAC [XGTACX_site3447],8.75 ± 0.099
20,AAACTTGACAGACACACACACACATATATAAAAAAA [CACACA_site757],8.61 ± 0.44
21,TTTTCCTTATATTATGCATGCAGGGTTTGACATTAT [TGCATGCA_site826],10.3 ± 0.34
22,ATGTGTTGGGAAAAGGCATGCACTTTTTTTTTTTTT [TGCATGCA_site707],8.89 ± 0.34

row,Sequence,gcPBM binding intensity (ln)
1,TGATAACCTCACAAATGTACGTACGGGGCTAGCATT [XGTACX_site4157],9.01 ± 0.52
2,ACACATACTAAAATGTTGTGAAATATGATAATGTGA [CACACA_negctrl_site851],8.55 ± 0.38
3,TTATAATAATAGAACTTTATGTAGAAAAAAGGAAAA [XGTACX_negctrl_site116],8.55 ± 0.6
4,ATATATTTTAAATATATTATTATTGCATTGTGAAAA [TGCATGCA_negctrl_site106],8.43 ± 0.26
5,CACAGACACGGACACACACACACACCCACATATATA [CACACA_site4355],8.73 ± 0.41
6,AAAAAAAAAAAAAAAACACACATATATATATATATA [CACACA_site2436],10.4 ± 0.11
7,TCTTAAAAAATAGGGACACGTAAATATAATATATAA [CACACA_negctrl_site554],8.73 ± 0.38
8,TATATATATATATATAGTACATATTAATTAATTTAT [XGTACX_site8198],10.1 ± 0.59
9,TGAATTTAGATATATACACACAAAAGTATATACAAT [CACACA_site2804],8.44 ± 0.35
10,TATATGTTTTATAGTACACACATAAATGGACATACT [CACACA_site2191],8.47 ± 0.26
11,ATATGTATTAAGTGTACACATATAATCTATCTTGTT [CACACA_site5329],8.71 ± 0.23
12,CCCACTAAAAAACACACACACACACCCATATATATA [CACACA_site6140],8.98 ± 0.31
13,TTTTTTTTATATAGTAGTACTAATTAGAATTTTTAT [XGTACX_site7476],8.34 ± 0.32
14,TAATGCCATAATACGTGTACTTAATATATTAGAACA [XGTACX_site5809],8.6 ± 0.39
15,TACATACATACATACACACATACATATGTATATATA [CACACA_site2480],9.09 ± 0.18
16,CTCAAATGTTATTGTAGTACCTAAAAAATATATTCT [XGTACX_site1970],8.37 ± 0.39
17,GTTGGTAGGCGGTACGGTACACGTAAAGTTTTTCTT [XGTACX_site7706],8.7 ± 0.38
18,ATAAATGACAAATTAACACACATATATTATATATAT [CACACA_site3899],8.51
19,ACCATATAAATAAACACACACACACGGATATAAATA [CACACA_site7157],8.73 ± 0.59
20,AACTCATAAAATAATGGTACACAAAAAAAATAAATA [XGTACX_site7648],8.86 ± 0.52
21,TTAGGCAAGGCGGGGGGTACGTTTTTATATAATTAT [XGTACX_site8029],10.7 ± 0.18
22,TTAGATTTATAAGTGTGTACGTAAAATACTTAATAA [XGTACX_site8246],8.35 ± 0.31
